# Laboratory results published in PubChem BioAssay AID686978 (National Center for Advancing Translational Sciences (NCATS), 2013).
# Where “and” joins values, the source holds several entries; their conditions need not be identical. Equal values may be shown once. Among all 420,000 compounds or so, about 64,000 (15%) were called active. The inconclusive results got no clear call from the source; some entries with a clear call stand among them for comparison. Calls come from the whole dose curve; as a rule, active = well fitted inhibition curve with a large enough effect; inconclusive = small, poorly fitted or top-dose-only effect; inactive = flat fitted curve, though single readings scatter. No potency is given beside an inconclusive call; the fits are too rough.
# Test: qHTS for Inhibitors of human tyrosyl-DNA phosphodiesterase 1 (TDP1): qHTS in cells in absence of CPT; note: nearly all actives have a fitted effect of over 55% in size
# Conditions: DT40 Tdp1-/- hTDP1 cells, no CPT, ATP luminescence, 48 h; activity change, negative = growth inhibition: at 46.2 µM (top of the series) unless noted
# Summary of the method: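 Growth of hTDP1-complemented DT40 Tdp1-knockout cells is measured by ATP luminescence after at least 48 hr compound exposure at 37 °C, with DMSO substituting for the 20 nM CPT used in the parallel screen.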
# % is set by controls: 0 for no effect and ±100 for the full control effect; potency is the fitted concentration of half-maximal effect; tags give direction and shape of the fitted curve.
Structure (SMILES),Potency,"activity change, negative = growth inhibition"
Cc1ccc(NC(=O)C(C)OC(=O)c2n[nH]c3ccccc23)cc1 (configuration not stated),inactive,–
CC(NC(=O)Cc1ccc(NC(=O)N2CCCCc3ccccc32)cc1)c1ccccc1 (configuration not stated),"inconclusive [inhibitor, single point]",–
O=C1CCc2ccc(NS(=O)(=O)c3ccc(F)cc3)cc2N1,"inconclusive [inhibitor, single point]",–
COc1cc(CCC(=O)Nc2nccs2)cc(OC)c1OC,inactive,–
CC1CCN(c2ccc3nnc(CCC(=O)N4CCCCC4)n3n2)CC1,inactive,–
CCc1cc2c(cc3c(=O)n(CC(=O)NCCCN(CC)CC)nc(CC)n32)s1,inactive,–
CCCn1c(=N)n(CC(=O)c2ccc([N+](=O)[O-])cc2)c2ccccc21,active: 23.1 µM,–
O=[N+]([O-])c1nn(-c2ccc3c(c2)OCCO3)n(O)c1=NC1CCCCCC1,inactive,–
CCCCCCCC(=O)Nc1cc(C(=O)NCc2ccc(C)cc2)ccc1N1CCC2(CC1)CC(c1ccccc1)=NO2,"inconclusive [inhibitor, partial curve]",–
c1nc(NCC2(N3CCOCC3)CCCCC2)c2ccsc2n1,active: 18.4 µM,–
CCOc1cc(/C=N/NC(=O)CN2CCCCC2)ccc1O,inactive,–
O=c1cc(-c2ccccc2)oc2cc(O)c(O)c(O)c12,active: 11.9 µM and active: 29.9 µM,–
CC(=O)NC1C(c2nc3ccccc3s2)=C(c2ccccc2)C(=O)N1c1ccc(C)cc1 (configuration not stated),"inconclusive [inhibitor, single point]",–
O=[N+]([O-])c1ccc(NC2CCCCC2)nc1,inactive,–
O=C(Nc1ccccc1)C1=C[C@@H](c2ccc(C(F)(F)F)cc2)C[C@@H](OCCCCO)O1,"inconclusive [inhibitor, single point]",–
C=CCSc1nc(O)c(CC)c(=O)n1C(C)CC (configuration not stated),inactive,–
Nc1ccn([C@@H]2O[C@H](C(=O)Nc3ccc(Oc4ccccc4)nc3)[C@@H](O)[C@H]2O)c(=O)n1,inactive,–
CCOC(=O)c1cnc2c(C)cc(C)cc2c1Nc1ccc(N2CCOCC2)cc1,active: 5.8 µM,–
CCCCCCCCN1[C@@H](CC(=O)O)c2ccc(/C=C/C(=O)O)cc2S1(=O)=O,"inconclusive [inhibitor, single point]",–
O=C(CSCc1ccc(Cl)cc1Cl)Nc1c[nH]c(=O)[nH]c1=O,inactive,–
Cc1ccc(-n2nc(C)c(C(=O)NCCCN3CCN(c4ccccc4F)CC3)c2-n2cccc2)cc1,active: 3.66 µM,–
COC(=O)c1cccc(NC(=O)c2ccc(OC)c(Cl)c2)c1,"inconclusive [inhibitor, single point]",–
CCNC(=O)C1CCCc2c1[nH]c1ccc(Cl)cc21 (configuration not stated),inactive,–
Cn1c(=O)c2c(nc(SCCN3CCOCC3)n2Cc2ccccc2Cl)n(C)c1=O,"inconclusive [inhibitor, single point]",–

Structure (SMILES),Potency,"activity change, negative = growth inhibition"
CC(NC(=O)COC(=O)c1ccccc1O)C1CC2CCC1C2 (configuration not stated),–,inconclusive: -36.9% [inhibitor]
CCCNC(=O)c1cc(-c2ccc(OC)cc2)n(CCCOC)c1C,"inconclusive [inhibitor, single point]",–
Cc1oc(-c2ccc(Cl)cc2)nc1CN1CCCC(C(=O)NCc2ccc(Cl)cc2)C1 (configuration not stated),"inconclusive [inhibitor, single point]",–
O=C(c1cccc(N2C(=O)C3C4C=CC(C4)C3C2=O)c1)N1CCN(c2ccccc2Cl)CC1 (configuration not stated),active: 20.6 µM,–
Cc1ccc(S(=O)(=O)N(CCC(=O)Nc2ccc(OC(F)(F)F)cc2)c2ccccc2)cc1,inactive,–
Cc1ccc(Oc2ncccc2/C=N/OCc2ccc(Cl)c(Cl)c2)cc1,"inconclusive [inhibitor, full curve, poor fit]",–
Cc1nn(C)c(C)c1CN(C(=O)CCc1nnc(Cc2c[nH]c3ccccc23)o1)C(C)C,active: 16.4 µM,–
COc1ccccc1-c1cc2nc(C)c(CCC(=O)NC(C)CCc3ccco3)c(C)n2n1 (configuration not stated),active: 20.6 µM,–
O=C(Nc1cccc(Cl)c1)C1=Cc2cc(Cl)ccc2OC1,"inconclusive [inhibitor, single point]",–
COc1ccc(Cn2c(C3CCCCC3)nc3c(c(=O)c4ccccc4n3C)c2=O)cc1,active: 16.4 µM,–
CCn1c(SCC(=O)Nc2ccc(OC)cc2OC)nc2nc3c(cc2c1=O)COC(C)(C)C3,"inconclusive [inhibitor, single point]",–
CC1CCCN(S(=O)(=O)CCNC(=O)c2ccc3c(c2)OCO3)C1 (configuration not stated),inactive,–
Cn1c(=O)c2c(c3ccccc31)OC(=O)CC2c1ccccc1 (configuration not stated),inactive,–
O=C(NCc1nnc(SCc2ccc(F)cc2)n1-c1ccc(F)cc1)C12CC3CC(CC(C3)C1)C2,active: 29.1 µM,–
O=c1c2ccccc2n2c(-c3cccc(F)c3)nnc2n1Cc1ccccc1,"inconclusive [inhibitor, single point]",–
O=C(CSc1nnc(SCc2ccccc2)s1)N/N=C/C=C\c1ccco1,"inconclusive [inhibitor, single point]",–
COc1ccc2c(c1)[C@H]1[C@H](CO2)[C@H](c2ccccc2)[C@]2(C)C(=O)N(CC3CCCO3)CC(=O)N12 (some centres not stated),"inconclusive [inhibitor, single point]",–
CC(C)c1ccc(NC(=O)CSC2=Nc3ccccc3C3=NC(CC(=O)NCc4ccco4)C(=O)N23)cc1 (configuration not stated),"inconclusive [inhibitor, single point]",–
O=C(NC1CCCCC1)c1ccc(-c2cn[nH]c2)c2ccoc12,active: 16.4 µM,–
O=C(Cc1cccc(NC(=O)C2CCN(S(=O)(=O)c3cccc([N+](=O)[O-])c3)CC2)c1)Nc1cccc(C(=O)N2CCOCC2)c1,inactive,–
Cc1cccc(-n2cc(CN3CCCN(C=O)CC3)c(-c3cccc(F)c3)n2)c1,"inconclusive [inhibitor, single point]",–
O=C(COC(=O)C1CCCCC1C(=O)N1CCc2ccccc21)NCc1ccco1 (configuration not stated),"inconclusive [inhibitor, single point]",–
O=[N+]([O-])/C=C\c1ccc(N2CCOCC2)cc1,active: 16.4 µM,–
Cc1nnc(N2CCC(C(=O)NCc3cccc(Cl)c3)CC2)c2nn(-c3ccccc3)c(C)c12,"inconclusive [inhibitor, single point]",–

Structure (SMILES),Potency,"activity change, negative = growth inhibition"
CCc1ccccc1N1CC(c2nc3ccccc3n2CCC2CCCCC2)CC1=O (configuration not stated),active: 5.17 µM,–
FC(F)(F)c1cccc(Cn2cnc(NC(=S)NCCc3ccccc3)n2)c1,"inconclusive [inhibitor, partial curve, poor fit]",–
CCOC(=O)c1c(NC(=O)COC(=O)Cn2cnc3ccccc32)sc(C)c1C,"inconclusive [inhibitor, single point]",–
CCC(CCCO)CCC[C@H](C)CCC1OCCO1 (some centres not stated),"inconclusive [inhibitor, single point]",–
O=C(NCc1ccc(F)cc1)c1c(O)c2cccc3c2n(c1=O)CCC3,"inconclusive [inhibitor, single point]",–
c1ccc(-c2noc(-c3ccc4ccccc4c3)n2)cc1,inactive,–
COc1ccc(CCNC(=S)Nc2ccc(C(C)C)cc2)cc1,active: 18.4 µM,–
FC(F)C(F)(F)Oc1cccc(Nc2nccn3c(-c4cccc5ccccc45)cnc23)c1,"inconclusive [inhibitor, single point]",–
Nc1c(C(=O)NCc2ccco2)nnn1-c1ccccc1,inactive,–
COc1ccc(CC(=O)Nc2cccc3ccccc23)cc1OC,"inconclusive [inhibitor, partial curve]",–
O=C(Nc1ccc(-c2ccc([N+](=O)[O-])cc2)cc1)c1ccccc1F,–,inconclusive: -39.1% [inhibitor]
CCOC(=O)N1CCN(C(=O)c2cnn(-c3cccc(C)c3)c2-n2cccc2)CC1,"inconclusive [inhibitor, single point]",–
CC(C)(C)N(Cc1cc2ccccc2[nH]c1=O)C(=O)c1cccnc1,"inconclusive [inhibitor, single point]",–
COc1cc(NC(=O)C2=C(C)OCCS2)c(Cl)cc1C(=O)NCCCN1CCCC(C)C1 (configuration not stated),"inconclusive [inhibitor, single point]",–
Cc1c(S(=O)(=O)Nc2cccc3ccccc23)c(=O)n(C)c(=O)n1C,inactive,–
COc1ccc(-c2cc(NC=O)c3ncc(-c4cccc(C(=O)NCCN(C)C)c4)n3c2)c(OC)c1,active: 3.66 µM,–
O=C1CN(C(=O)COC(=O)c2ccc(C(F)(F)F)cc2)c2ccccc2N1,inactive,–
Cc1ccc(C(=O)ONC(=O)c2ccc(Cl)cc2)cc1[N+](=O)[O-],"inconclusive [inhibitor, single point]",–
CC(N=C1NS(=O)(=O)c2ccccc21)C(=O)NCc1ccc2c(c1)OCO2 (configuration not stated),"inconclusive [inhibitor, single point]",–
COc1ccc(/C=N/NC(=O)CCSc2nc3ccccc3s2)cc1,active: 2.59 µM,–
COc1ccc(OC)c(NC(=O)c2cc3c(=O)n4cccc(C)c4nc3n2C)c1,active: 9.2 µM,–
CCN(CC)C1=N/C(=C\c2ccc(OC)cc2)C(=O)N1c1ccccc1,"inconclusive [inhibitor, single point]",–
Cc1ccc(S(=O)(=O)C2(C(=O)N3CCN(c4ccccc4F)CC3)CC2)cc1,inactive,–
CN(C)c1ccc(-c2nc3ccccn3c2Nc2ccc3c(c2)OCCO3)cc1,"inconclusive [inhibitor, partial curve]",–
